According to US20260258137A1 (HARBOUR BIOMED SHANGHAI, published 2026):
Read-outs that look alike come from different tables or passages of the source.

What was measured:
[1] = molecular target: human TGFB1 protein (R&D Systems, 240-B/F) (human, UniProt P01137 partial chain); assay: cell-based or functional assay
[2] = molecular target: T1, Human TGFB1 (Novoprotein, CA59) (human, UniProt P01137 partial chain, biotinylated with EZ-Link Sulfo-NHS-LC-Biotin in the BLI experiment of Example 19; not biotinylated in the ELISA of Example 16); assay: ELISA, coated human TGFB1
T1 construct: bought reagent; also called human TGFB1 protein; biotinylated human TGFB1

[3] = molecular target: T1, Human TGFB1 (Novoprotein, CA59); assay: BLI (Octet), biotinylated hTGFB1 on SA sensor, 1:1 global fit
[4] = molecular target: human PD-L1 on Hep3B cells co-expressing human PD-L1 and OS8 (human, UniProt Q9NZQ7); assay: cell-based or functional assay
[5] = molecular target: T2, human PD-L1 on CHO-K1 cells (CHO-K1/hPD-L1, Nanjing Genscript, M00543) (human, UniProt Q9NZQ7); assay: flow cytometry on CHO-K1/hPD-L1 cells
T2 construct: whole, on cells; also called CHO-K1 cells overexpressing human PD-L1; human PD-L1 on the cell surface

[6] = molecular target: T2, human PD-L1 on CHO-K1 cells …; assay: flow cytometry competition: biotin-hPD-1 binding to CHO-K1/hPD-L1 cells
[7] = molecular target: T1, Human TGFB1 (Novoprotein, CA59); assay: ELISA, coated human TGFB1; remark: listed apart in the source
[8] = molecular target: T2, human PD-L1 on CHO-K1 cells …; assay: flow cytometry on CHO-K1/hPD-L1 cells; remark: listed apart in the source
[9] = molecular target: T2, human PD-L1 on CHO-K1 cells …; assay: flow cytometry competition: biotin-hPD-1 binding to CHO-K1/hPD-L1 cells; remark: listed apart in the source
[10] = molecular target: T3, human PD-L1 protein with histidine tag (NovoProtein, C315) (human, UniProt Q9NZQ7 partial chain, limits assumed, biotinylated with EZ-Link Sulfo-NHS-LC-Biotin in the epitope competition experiments (Examples 8 and 20); not biotinylated in the affinity experiments); assay: BLI (Octet), fusion protein on AHC sensor, antigen 12.5-0.78 nM, 1:1 global fit
T3 construct: bought reagent; also called biotinylated PD-L1 protein; not shown: histidine tag

T1 sequence (P01137 279-390 limits assumed): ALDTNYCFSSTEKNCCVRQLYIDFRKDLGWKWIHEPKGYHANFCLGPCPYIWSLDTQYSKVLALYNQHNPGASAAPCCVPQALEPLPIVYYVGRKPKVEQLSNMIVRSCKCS

Binder	IC50 (nM), Smad SEAP reporter in HEK-Blue TGFB cells [1] [nM]	EC50 [2] [nM]	OD Maximum value [2] [OD]	Kd [3] [nM]	EC50 (nM), PD-1 reporter gene cell line [4] [nM]	Maximum fluorescence value (RLU) [4] [RLU]	EC50 [5] [nM]	MFI maximum value [5] [MFI]	IC50 [6] [nM]	EC50 [7] [nM]	OD Maximum value [7] [OD]	EC50 [8] [nM]	MFI maximum value [8] [MFI]	IC50 [9] [nM]	Kd [10] [nM]	koff [10] [s⁻¹]	kon [10] [M⁻¹ s⁻¹]
PR001599 (other, also called M7824; bintrafusp alfa analog) heavy: EVQLLESGGGLVQPGGSLRLSCAASGFTFSSYIMMWVRQAPGKGLEWVSSIYPSGGITFYADTVKGRFTISRDNSKNTLYLQMNSLRAEDTAVYYCARIKLGTVTTVDYWGQGTLVTVSSASTKGPSVFPLAPSSKSTSGGTAALGCLVKDYFPEPVTVSWNSGALTSGVHTFPAVLQSSGLYSLSSVVTVPSSSLGTQTYICNVNHKPSNTKVDKRV[letters of human IgG1 Fc omitted]GGGGSGGGGSGGGGSGGGGSGIPPHVQKSVNNDMIVTDNNGAVKFPQLCKFCDVRFSTCDNQKSCMSNCSITSICEKPQEVCVAVWRKNDENITLETVCHDPKLPYHDFILEDAASPKCIMKEKKKPGETFFMCSCSSDECNDNIIFSEEYNTSNPD light: QSALTQPASVSGSPGQSITISCTGTSSDVGGYNYVSWYQQHPGKAPKLMIYDVSNRPSGVSNRFSGSKSGNTASLTISGLQAEDEADYYCSSYTSSSTRVFGTGTKVTVLGQPKANPTVTLFPPSSEELQANKATLVCLISDFYPGAVTVAWKADGSPVKAGVETTKPSKQSNNKYAASSYLSLTPEQWKSHRSYSCQVTHEGSTVEKTVAPTECS	0.009	1.55	1.81	0.104	–	–	–	–	–	–	–	–	–	–	–	–	–
PR001487 (other, anti-PD-L1 / TGFBRII bifunctional fusion protein: PR000265 heavy chain (hIgG1) - (G4S)3 - human TGFBRII extracellular region 23-159 as first polypeptide; light chain as second polypeptide) heavy: EVQLVESGGGLVQPGGSLRLSCAASGFTFSSYWMSWVRQAPGKGLEWVANIKQEGSEKYYVDSVKGRFTISRDNAKNSLYLQMNSLRAEDTAVYYCARDRAVAGAFDIWGQGTMVTVSSASTKGPSVFPLAPSSKSTSGGTAALGCLVKDYFPEPVTVSWNSGALTSGVHTFPAVLQSSGLYSLSSVVTVPSSSLGTQTYICNVNHKPSNTKVDKKV[letters of human IgG1 Fc omitted]GGGSGGGGSGGGGSTIPPHVQKSVNNDMIVTDNNGAVKFPQLCKFCDVRFSTCDNQKSCMSNCSITSICEKPQEVCVAVWRKNDENITLETVCHDPKLPYHDFILEDAASPKCIMKEKKKPGETFFMCSCSSDECNDNIIFSEEYNTSNPD light: DIQMTQSPSTLSASVGDRVTVTCRASQSIYIWLAWYQQKPGKAPNLLIYKASSLETGVPSRFSGSGSGTEFTLTISSLQPDDFATYYCQQYYGSSRTFGQGTKVEIKRTVAAPSVFIFPPSDEQLKSGTASVVCLLNNFYPREAKVQWKVDNALQSGNSQESVTEQDSKDSTYSLSSTLTLSKADYEKHKVYACEVTHQGLSSPVTKSFNRGEC	–	1.08	1.74	–	0.056	3600	0.314	53000	0.216	–	–	–	–	–	–	–	–
PR002251 (other, anti-PD-L1 / TGFBRII bifunctional fusion protein: PR000070 heavy chain (hIgG1) - (G4S)4 - human TGFBRII extracellular region 24-159) heavy: EVQLVESGGGLVQPGGSLRLSCAASGFTFSSYWMSWVRQAPGKGLEWVANIKQDGSEKYYVDSVKGRFTISRDNAKNSLYLQMNSLRAEDTAVYYCARDRAVAGAFDIWGQGTMVTVSSASTKGPSVFPLAPSSKSTSGGTAALGCLVKDYFPEPVTVSWNSGALTSGVHTFPAVLQSSGLYSLSSVVTVPSSSLGTQTYICNVNHKPSNTKVDKKV[letters of human IgG1 Fc omitted]GGGSGGGGSGGGGSGGGGSGIPPHVQKSVNNDMIVTDNNGAVKFPQLCKFCDVRFSTCDNQKSCMSNCSITSICEKPQEVCVAVWRKNDENITLETVCHDPKLPYHDFILEDAASPKCIMKEKKKPGETFFMCSCSSDECNDNIIFSEEYNTSNPD light: DIQMTQSPSTLSASVGDRVTVTCRASQSIYIWLAWYQQKPGKAPNLLIYKASSLETGVPSRFSGSGSGTEFTLTISSLQPDDFATYYCQQYYGSSRTFGQGTKVEIKRTVAAPSVFIFPPSDEQLKSGTASVVCLLNNFYPREAKVQWKVDNALQSGNSQESVTEQDSKDSTYSLSSTLTLSKADYEKHKVYACEVTHQGLSSPVTKSFNRGEC	–	–	–	–	–	–	–	–	–	1.2	1.53	0.501	41200	0.317	0.0974	0.000114	1.17e+06
PR001901 (other, anti-PD-L1 / TGFBRII bifunctional fusion protein: PR000265 heavy chain (hIgG1) - (G2S)2 - human TGFBRII extracellular region 24-159) heavy: EVQLVESGGGLVQPGGSLRLSCAASGFTFSSYWMSWVRQAPGKGLEWVANIKQEGSEKYYVDSVKGRFTISRDNAKNSLYLQMNSLRAEDTAVYYCARDRAVAGAFDIWGQGTMVTVSSASTKGPSVFPLAPSSKSTSGGTAALGCLVKDYFPEPVTVSWNSGALTSGVHTFPAVLQSSGLYSLSSVVTVPSSSLGTQTYICNVNHKPSNTKVDKKV[letters of human IgG1 Fc omitted]SGGSGIPPHVQKSVNNDMIVTDNNGAVKFPQLCKFCDVRFSTCDNQKSCMSNCSITSICEKPQEVCVAVWRKNDENITLETVCHDPKLPYHDFILEDAASPKCIMKEKKKPGETFFMCSCSSDECNDNIIFSEEYNTSNPD light: DIQMTQSPSTLSASVGDRVTVTCRASQSIYIWLAWYQQKPGKAPNLLIYKASSLETGVPSRFSGSGSGTEFTLTISSLQPDDFATYYCQQYYGSSRTFGQGTKVEIKRTVAAPSVFIFPPSDEQLKSGTASVVCLLNNFYPREAKVQWKVDNALQSGNSQESVTEQDSKDSTYSLSSTLTLSKADYEKHKVYACEVTHQGLSSPVTKSFNRGEC	–	1.29	1.8	–	–	–	0.488	46800	0.26	–	–	–	–	–	–	–	–

Next, values leading:

IC50 (nM), Smad SEAP reporter in HEK-Blue TGFB cells [1] [nM]	EC50 [2] [nM]	OD Maximum value [2] [OD]	Kd [3] [nM]	EC50 (nM), PD-1 reporter gene cell line [4] [nM]	Maximum fluorescence value (RLU) [4] [RLU]	EC50 [5] [nM]	MFI maximum value [5] [MFI]	IC50 [6] [nM]	EC50 [7] [nM]	OD Maximum value [7] [OD]	EC50 [8] [nM]	MFI maximum value [8] [MFI]	IC50 [9] [nM]	Kd [10] [nM]	koff [10] [s⁻¹]	kon [10] [M⁻¹ s⁻¹]	Binder
–	–	–	–	–	–	–	–	–	1.43	1.52	0.584	41900	0.4	0.0595	6.37e-05	1.07e+06	PR002249 (other, anti-PD-L1 / TGFBRII bifunctional fusion protein: PR000266 heavy chain (hIgG1) - (G4S)4 - human TGFBRII extracellular region 24-159) heavy: EVQLVESGGGLVQPGGSLRLSCAASGFTFSSYWMSWVRQAPGKGLEWVANIKQDASEKYYVDSVKGRFTISRDNAKNSLYLQMNSLRAEDTAVYYCARDRAVAGAFDIWGQGTMVTVSSASTKGPSVFPLAPSSKSTSGGTAALGCLVKDYFPEPVTVSWNSGALTSGVHTFPAVLQSSGLYSLSSVVTVPSSSLGTQTYICNVNHKPSNTKVDKKV[letters of human IgG1 Fc omitted]GGGSGGGGSGGGGSGGGGSGIPPHVQKSVNNDMIVTDNNGAVKFPQLCKFCDVRFSTCDNQKSCMSNCSITSICEKPQEVCVAVWRKNDENITLETVCHDPKLPYHDFILEDAASPKCIMKEKKKPGETFFMCSCSSDECNDNIIFSEEYNTSNPD light: DIQMTQSPSTLSASVGDRVTVTCRASQSIYIWLAWYQQKPGKAPNLLIYKASSLETGVPSRFSGSGSGTEFTLTISSLQPDDFATYYCQQYYGSSRTFGQGTKVEIKRTVAAPSVFIFPPSDEQLKSGTASVVCLLNNFYPREAKVQWKVDNALQSGNSQESVTEQDSKDSTYSLSSTLTLSKADYEKHKVYACEVTHQGLSSPVTKSFNRGEC
–	–	–	–	–	–	–	–	–	1.29	1.51	0.984	43300	0.418	–	–	–	PR002248 (other, anti-PD-L1 / TGFBRII bifunctional fusion protein: PR000268 heavy chain (hIgG1) - (G4S)4 - human TGFBRII extracellular region 24-159) heavy: EVQLVESGGGLVQPGGSLRLSCAASGFTFSSYWMSWVRQAPGKGLEWVANIKQDASEKYYGDSVKGRFTISRDNAKNSLYLQMNSLRAEETAVYYCARDRAVAGASDIWGQGTMVTVSSASTKGPSVFPLAPSSKSTSGGTAALGCLVKDYFPEPVTVSWNSGALTSGVHTFPAVLQSSGLYSLSSVVTVPSSSLGTQTYICNVNHKPSNTKVDKKV[letters of human IgG1 Fc omitted]GGGSGGGGSGGGGSGGGGSGIPPHVQKSVNNDMIVTDNNGAVKFPQLCKFCDVRFSTCDNQKSCMSNCSITSICEKPQEVCVAVWRKNDENITLETVCHDPKLPYHDFILEDAASPKCIMKEKKKPGETFFMCSCSSDECNDNIIFSEEYNTSNPD light: DIQMTQSPSTLSASVGDRVTITCRASQSISSWLAWYQQKPGKAPNLLIYKASSLETGVPSRFSGSGSGTEFTLTISSLQPDDFATYYCQQYYGYSRTFGQGTKVEIKRTVAAPSVFIFPPSDEQLKSGTASVVCLLNNFYPREAKVQWKVDNALQSGNSQESVTEQDSKDSTYSLSSTLTLSKADYEKHKVYACEVTHQGLSSPVTKSFNRGEC
